Reference: article PMC13034042
Results are given in words; binding and its absence hold for the method and conditions named. Some entries that bind do so weakly or less than the wild type. For part of these data: Where a sequence is shown, tags or fusion partners need not be part of it.

What was measured:
Assay in all cases: two-hybrid; Y2H in reporter strain PJ69-4A; G4BD bait and G4AD prey from monocopy plasmids (ADH1 promoter); growth on SC-HLT (HIS3) and SC-ALT (ADE2) plates, 3 days at 30°C
[1] = target: T1, Bcl1, full length, Y2H fusion (S. cerevisiae) (UniProt P53962)
T1 sequence: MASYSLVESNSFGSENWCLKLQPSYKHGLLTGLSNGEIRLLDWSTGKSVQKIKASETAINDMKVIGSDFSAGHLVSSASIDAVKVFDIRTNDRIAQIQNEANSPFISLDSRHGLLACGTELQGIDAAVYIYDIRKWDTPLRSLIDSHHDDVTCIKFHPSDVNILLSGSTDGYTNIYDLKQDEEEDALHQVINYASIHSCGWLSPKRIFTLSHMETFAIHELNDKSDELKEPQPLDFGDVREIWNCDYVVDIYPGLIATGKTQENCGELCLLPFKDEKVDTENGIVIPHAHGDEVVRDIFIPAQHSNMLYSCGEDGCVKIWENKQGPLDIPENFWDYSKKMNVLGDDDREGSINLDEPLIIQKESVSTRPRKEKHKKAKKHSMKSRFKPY

[2] = target: T2, Bcl1.323C, Y2H fusion (S. cerevisiae) (UniProt P53962)
T2 sequence: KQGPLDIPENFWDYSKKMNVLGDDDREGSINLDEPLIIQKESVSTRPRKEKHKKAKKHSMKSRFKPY

[3] = target: T3, Bcl1.323C R385A/P388A/Y389A, Y2H fusion (S. cerevisiae) (UniProt P53962)
T3 sequence: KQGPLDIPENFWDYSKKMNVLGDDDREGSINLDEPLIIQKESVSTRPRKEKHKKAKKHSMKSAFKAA

[4] = target: T4, Bcl1.323C P388A/Y389A, Y2H fusion (S. cerevisiae) (UniProt P53962)
T4 sequence: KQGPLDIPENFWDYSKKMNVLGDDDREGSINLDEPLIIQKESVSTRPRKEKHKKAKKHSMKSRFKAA

[5] = target: T5, Bcl1.364C R385A/P388A/Y389A, Y2H fusion (S. cerevisiae) (UniProt P53962)
T5 sequence: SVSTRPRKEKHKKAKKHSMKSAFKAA

[6] = target: T6, Bcl1.364C, Y2H fusion (S. cerevisiae) (UniProt P53962)
T6 sequence: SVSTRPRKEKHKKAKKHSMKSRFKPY

[7] = target: T7, Bcl1.364C P388A/Y389A, Y2H fusion (S. cerevisiae) (UniProt P53962)
T7 sequence: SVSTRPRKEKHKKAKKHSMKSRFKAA

[8] = target: T8, Bcl1.364C Y389A, Y2H fusion (S. cerevisiae) (UniProt P53962)
T8 sequence: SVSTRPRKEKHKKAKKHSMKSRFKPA

[9] = target: T9, Bcl1.323C Y389A, Y2H fusion (S. cerevisiae) (UniProt P53962)
T9 sequence: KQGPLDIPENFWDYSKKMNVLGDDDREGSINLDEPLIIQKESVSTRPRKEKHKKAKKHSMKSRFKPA

[10] = target: T10, Bcl1.323C R385A, Y2H fusion (S. cerevisiae) (UniProt P53962)
T10 sequence: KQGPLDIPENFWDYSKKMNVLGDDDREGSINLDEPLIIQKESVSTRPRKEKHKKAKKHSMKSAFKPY

[11] = target: T11, Hrp1.504C, Y2H bait (S. cerevisiae) (UniProt Q99383)
T11 sequence: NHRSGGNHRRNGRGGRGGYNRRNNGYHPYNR

[12] = target: T12, Bcl1.364C R385A, Y2H fusion (S. cerevisiae) (UniProt P53962)
T12 sequence: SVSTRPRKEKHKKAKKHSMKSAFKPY

B1: Kap104.305C, Y2H prey (domain or fragment, UniProt P38217 305-918)
chain: ATSPNIPEHILQPYVKDIVPILLSKMVYNEESIVLLEASNDDDAFLEDKDEDIKPIAPRIVKKKEAGNGEDADDNEDDDDDDDDEDGDVDTQWNLRKCSAATLDVMTNILPHQVMDIAFPFLREHLGSDRWFIREATILALGAMAEGGMKYFNDGLPALIPFLVEQLNDKWAPVRKMTCWTLSRFSPWILQDHTEFLIPVLEPIINTLMDKKKDVQEAAISSVAVFIENADSELVETLFYSQLLTSFDKCLKYYKKKNLIILYDAIGRFAEKCALDETAMQIILPPLIEKWALLSDSDKELWPLLECLSCVASSLGERFMPMAPEVYNRAFRILCHCVELEAKSHQDPTIVVPEKDFIITSLDLIDGLVQGLGAHSQDLLFPQGTKDLTILKIMLECLQDPVHEVRQSCFALLGDIVYFFNSELVIGNLEDFLKLIGTEIMHNDDSDGTPAVINAIWALGLISERIDLNTYIIDMSRIILDLFTTNTQIVDSSVMENLSVTIGKMGLTHPEVFSSGAFANDSNWNKWCLSVNALDDVEEKSSAYMGFLKIINLTSTEVTMSNDTIHKIVTGLSSNVEANVFAQEIYTFLMNHSAQISAINFTPDEISFLQQFTS
[1]
  binding: binds
[2]
  binding: binds
[3]
  binding: no binding
[4]
  binding: no binding
[5]
  binding: no binding
[6]
  binding: binds
[7]
  binding: no binding
[8]
  binding: no binding
[9]
  binding: no binding
[10]
  binding: binds
[11]
  binding: binds
[12]
  binding: binds
